{"source": "the BET-seq Pho4 binding data (Le et al. 2018)", "note": "This is one part of the list. Values were computed here from the reads of four pooled replicates and scatter widely.", "data": [{"biological_target": "T1, Pho4 (S. cerevisiae) (UniProt P07270)", "T1 sequence": "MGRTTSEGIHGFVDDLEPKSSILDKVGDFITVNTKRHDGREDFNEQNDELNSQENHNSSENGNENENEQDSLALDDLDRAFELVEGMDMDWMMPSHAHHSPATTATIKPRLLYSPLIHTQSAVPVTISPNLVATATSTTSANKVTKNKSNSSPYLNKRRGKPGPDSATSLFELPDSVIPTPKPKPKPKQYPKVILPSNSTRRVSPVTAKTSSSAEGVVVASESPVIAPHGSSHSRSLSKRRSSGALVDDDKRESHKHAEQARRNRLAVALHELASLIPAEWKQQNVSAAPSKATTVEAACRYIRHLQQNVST", "assay": "relative binding free energy (BET-seq); higher = weaker binding", "conditions": "reference: library average", "units": {"relative binding free energy": "kcal/mol"}, "values": [{"sequence": "CGTGGCACGTGATAAG", "relative binding free energy": -0.01}, {"sequence": "TGGGACACGTGTGTGT", "relative binding free energy": 0.08}, {"sequence": "CAAGTCACGTGTAGTT", "relative binding free energy": 0.18}, {"sequence": "TGGCACACGTGTTGTT", "relative binding free energy": 0.1}, {"sequence": "GTATTCACGTGGTGTA", "relative binding free energy": 0.23}, {"sequence": "AGATGCACGTGCAAGG", "relative binding free energy": -0.07}, {"sequence": "TGGGCCACGTGGAGGC", "relative binding free energy": -0.28}, {"sequence": "TATTGCACGTGGCGTG", "relative binding free energy": -0.07}, {"sequence": "CTTGGCACGTGTAGGG", "relative binding free energy": -0.05}, {"sequence": "TATTACACGTGGTTCA", "relative binding free energy": -0.09}, {"sequence": "TGTTACACGTGGAATG", "relative binding free energy": 0.06}, {"sequence": "AAGGTCACGTGCGTTT", "relative binding free energy": -0.01}, {"sequence": "ATGGGCACGTGAAGGC", "relative binding free energy": 0.18}, {"sequence": "GAGGACACGTGGTGTG", "relative binding free energy": 0.02}, {"sequence": "TTTTTCACGTGGTTCG", "relative binding free energy": 0.22}, {"sequence": "GGTAACACGTGAGTTA", "relative binding free energy": 0.43}, {"sequence": "GGTCACACGTGGGGCA", "relative binding free energy": -0.01}, {"sequence": "TGTTACACGTGTAATT", "relative binding free energy": 0.06}, {"sequence": "AATAGCACGTGTGGGG", "relative binding free energy": 0.07}, {"sequence": "GTGTTCACGTGTGAAT", "relative binding free energy": 0.25}, {"sequence": "AGTCACACGTGGGCGT", "relative binding free energy": -0.03}, {"sequence": "TCGTCCACGTGGTGTG", "relative binding free energy": -0.09}, {"sequence": "TGGCACACGTGTCGGG", "relative binding free energy": 0.16}, {"sequence": "GGTATCACGTGGATGG", "relative binding free energy": 0.2}, {"sequence": "TTGTACACGTGCTGCT", "relative binding free energy": 0.05}, {"sequence": "GAACTCACGTGTGGGG", "relative binding free energy": 0.26}, {"sequence": "CTTTTCACGTGTTATT", "relative binding free energy": 0.08}, {"sequence": "GTGTACACGTGGTTGG", "relative binding free energy": 0.07}, {"sequence": "AGTGGCACGTGGCTGA", "relative binding free energy": -0.35}, {"sequence": "GGTTTCACGTGGTGGC", "relative binding free energy": 0.31}, {"sequence": "GGCGGCACGTGCGTGC", "relative binding free energy": -0.14}, {"sequence": "GTGTTCACGTGAATTT", "relative binding free energy": 0.47}, {"sequence": "GCTGTCACGTGTCGGG", "relative binding free energy": 0.19}, {"sequence": "CTGTTCACGTGTGCAG", "relative binding free energy": 0.17}, {"sequence": "TCTAACACGTGGAGGG", "relative binding free energy": -0.05}, {"sequence": "CGTGTCACGTGGGACT", "relative binding free energy": -0.01}, {"sequence": "TGGTTCACGTGCGAAT", "relative binding free energy": 0.42}, {"sequence": "CATGTCACGTGGAGTG", "relative binding free energy": 0.07}, {"sequence": "GAATTCACGTGTGGTA", "relative binding free energy": 0.46}, {"sequence": "TATATCACGTGAAGTT", "relative binding free energy": 0.4}, {"sequence": "ATGGTCACGTGCGGGC", "relative binding free energy": -0.02}, {"sequence": "GCTGTCACGTGTAAGG", "relative binding free energy": 0.14}, {"sequence": "GTATGCACGTGTTCGA", "relative binding free energy": 0.05}, {"sequence": "TTTGGCACGTGACAGG", "relative binding free energy": -0.16}, {"sequence": "GTAGGCACGTGTTGAC", "relative binding free energy": 0.01}, {"sequence": "TGGCGCACGTGTGTCA", "relative binding free energy": -0.06}, {"sequence": "CAGCACACGTGGGGGT", "relative binding free energy": -0.09}, {"sequence": "TTTGACACGTGTTTCG", "relative binding free energy": 0.08}, {"sequence": "TTGGACACGTGAGCTG", "relative binding free energy": 0.04}, {"sequence": "AAGTACACGTGAAAGT", "relative binding free energy": 0.37}, {"sequence": "TTATTCACGTGAAGTC", "relative binding free energy": 0.4}, {"sequence": "TCGTTCACGTGGATTG", "relative binding free energy": 0.26}, {"sequence": "TAATTCACGTGGTGCG", "relative binding free energy": 0.27}, {"sequence": "TGTTGCACGTGACTTG", "relative binding free energy": -0.01}, {"sequence": "GAATACACGTGGGTCG", "relative binding free energy": 0.09}, {"sequence": "GCGGGCACGTGGGTCG", "relative binding free energy": -0.18}, {"sequence": "GGGTGCACGTGCCGTA", "relative binding free energy": -0.15}, {"sequence": "GCATTCACGTGTGGCG", "relative binding free energy": 0.42}, {"sequence": "GAGTTCACGTGGTGAT", "relative binding free energy": 0.32}, {"sequence": "CGCGGCACGTGGGGAG", "relative binding free energy": -0.31}, {"sequence": "CGAGACACGTGGTCGG", "relative binding free energy": -0.01}, {"sequence": "TATGGCACGTGTTAAC", "relative binding free energy": -0.09}, {"sequence": "CGGGGCACGTGGCTAG", "relative binding free energy": -0.22}, {"sequence": "AAAAGCACGTGGTTTT", "relative binding free energy": -0.14}, {"sequence": "AAATTCACGTGTAAGT", "relative binding free energy": 0.28}, {"sequence": "TTGCACACGTGTAGGG", "relative binding free energy": -0.03}, {"sequence": "TTAGTCACGTGAGGCT", "relative binding free energy": 0.28}, {"sequence": "GGGCACACGTGTTTGA", "relative binding free energy": 0.15}, {"sequence": "ACGGGCACGTGGTTAT", "relative binding free energy": -0.14}, {"sequence": "TTATACACGTGGGCAG", "relative binding free energy": -0.15}, {"sequence": "AATGGCACGTGATGTG", "relative binding free energy": 0.01}, {"sequence": "TTGTGCACGTGGGACC", "relative binding free energy": -0.15}, {"sequence": "TTCGACACGTGTTCGG", "relative binding free energy": 0.1}, {"sequence": "AAGAGCACGTGAGGGG", "relative binding free energy": 0.11}, {"sequence": "GTGATCACGTGGAGAG", "relative binding free energy": 0.12}, {"sequence": "CATTACACGTGTAGGA", "relative binding free energy": 0.32}, {"sequence": "AACGGCACGTGATAGT", "relative binding free energy": 0.14}, {"sequence": "ATGATCACGTGAGGGG", "relative binding free energy": 0.27}, {"sequence": "ATATTCACGTGCAGTG", "relative binding free energy": 0.04}, {"sequence": "GTGGACACGTGGAGCG", "relative binding free energy": 0.08}, {"sequence": "GGGCTCACGTGATGGA", "relative binding free energy": 0.51}, {"sequence": "TATGCCACGTGGTTGG", "relative binding free energy": -0.14}, {"sequence": "AAAGGCACGTGTTTTA", "relative binding free energy": -0.14}, {"sequence": "GTGGTCACGTGGTACT", "relative binding free energy": 0.04}, {"sequence": "AATTTCACGTGCTTTT", "relative binding free energy": 0.18}, {"sequence": "TACTTCACGTGTATGT", "relative binding free energy": 0.16}, {"sequence": "TGAGGCACGTGCTGAT", "relative binding free energy": -0.22}, {"sequence": "TTGGTCACGTGCGGCA", "relative binding free energy": -0.03}, {"sequence": "CTTTACACGTGGGTTA", "relative binding free energy": 0.08}, {"sequence": "GGTACCACGTGCGTGG", "relative binding free energy": -0.15}, {"sequence": "AGAGCCACGTGATGGG", "relative binding free energy": -0.01}, {"sequence": "TGGCCCACGTGCGTGG", "relative binding free energy": -0.2}, {"sequence": "GATGGCACGTGAAATA", "relative binding free energy": 0.4}, {"sequence": "GTGAGCACGTGGTTTA", "relative binding free energy": -0.19}, {"sequence": "GAAGACACGTGGGGGG", "relative binding free energy": -0.05}, {"sequence": "CTGGCCACGTGACGGG", "relative binding free energy": 0.18}, {"sequence": "TGTGGCACGTGAGCGG", "relative binding free energy": 0.09}, {"sequence": "GATTGCACGTGTAAGT", "relative binding free energy": 0.27}, {"sequence": "GTTGCCACGTGGTAGG", "relative binding free energy": -0.13}, {"sequence": "GTGGTCACGTGCAAAT", "relative binding free energy": 0.21}, {"sequence": "AGGTGCACGTGAGGCA", "relative binding free energy": 0.1}, {"sequence": "TGAGACACGTGAGGAT", "relative binding free energy": 0.16}, {"sequence": "TACGTCACGTGTTGGG", "relative binding free energy": 0.13}, {"sequence": "ATTTACACGTGGGGCA", "relative binding free energy": -0.02}, {"sequence": "GAATTCACGTGGGTCT", "relative binding free energy": 0.33}, {"sequence": "TGTCTCACGTGCTAGG", "relative binding free energy": 0.17}, {"sequence": "GGTTTCACGTGCGATA", "relative binding free energy": 0.26}, {"sequence": "AGAAGCACGTGTGGGC", "relative binding free energy": 0.07}, {"sequence": "ATATCCACGTGTAGTT", "relative binding free energy": -0.05}, {"sequence": "AGTGTCACGTGGAATG", "relative binding free energy": 0.07}, {"sequence": "AGGTTCACGTGTTGAT", "relative binding free energy": 0.17}, {"sequence": "GTTAGCACGTGGATTT", "relative binding free energy": -0.01}, {"sequence": "TGAAGCACGTGAGAGT", "relative binding free energy": 0.2}, {"sequence": "GGGGGCACGTGCGTAC", "relative binding free energy": -0.18}, {"sequence": "TTACGCACGTGATTTT", "relative binding free energy": -0.04}]}]}
